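Results reflect a 48-hour exposure of cells in 96-well plates to compound at five concentrations. Abbreviation: GI50, concentration required for 50% inhibition of growth.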 Some entries of the source have several records that differ or are many. This list holds those alone. The source may hold further records. For some assays here: A record mostly stands for its own series of concentrations, not given here; a value can be the end of its range.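 Definition used: TGI = concentration required for complete inhibition of growth.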 Additions like (4×) stand for listed records that agree. For some assays here: Values given together repeat one measurement in other runs, samples, wells, individuals or studies. What stands in brackets tells the records apart. The letters are not those of the source and start again with each entry.
Key:
Assay in all cases: NCI tumour cell line growth inhibition, 48 h
[1] = tested on: CCRF-CEM leukemia
[2] = tested on: HCT-116 colon
[3] = tested on: U251 CNS
[4] = tested on: SK-OV-3 ovarian
[5] = tested on: M14 melanoma
[6] = tested on: UO-31 renal
[7] = tested on: UACC-257 melanoma
[8] = tested on: OVCAR-8 ovarian
[9] = tested on: SK-MEL-28 melanoma
[10] = tested on: SF-295 CNS
[11] = tested on: SR leukemia
[12] = tested on: SW-620 colon
[13] = tested on: RPMI-8226 leukemia
[14] = tested on: SK-MEL-2 melanoma
[15] = tested on: SF-268 CNS
[16] = tested on: NCI/ADR-RES ovarian
[17] = tested on: LOX IMVI melanoma
[18] = tested on: HCC-2998 colon
[19] = tested on: ACHN renal
[20] = tested on: 786-0 renal
[21] = tested on: HOP-62 NSCLC
[22] = tested on: SF-539 CNS
[23] = tested on: SN12C renal
[24] = tested on: COLO 205 colon
[25] = tested on: A549 NSCLC
[26] = tested on: EKVX NSCLC
[27] = tested on: OVCAR-5 ovarian
[28] = tested on: NCI-H23 lung
[29] = tested on: KM12 colon
[30] = tested on: SNB-75 CNS
[31] = tested on: TK-10 renal
[32] = tested on: MALME-3M melanoma
[33] = tested on: A498 renal
[34] = tested on: SK-MEL-5 melanoma
[35] = tested on: OVCAR-4 ovarian
[36] = tested on: HS 578T breast

Q: With CCc1nc(N)nc(N)c1-c1ccc(Cl)cc1 as the compound, how does the TGI [1] read?
A: The TGI was 9.79 µM [sample A] and > 100 µM [sample B].

Q: With Cc1cc(O)c2c(c1)C[C@@H](O)C1=C2C(=O)c2c(O)ccc(OC3CC(O)C(OC4CC(OC5CCC(OC6CC(O)C(OC7CC(OC8CCC(O)C(C)O8)C(O)C(C)O7)C(C)O6)C(C)O5)C(O)C(C)O4)C(C)O3)c2C1=O (stereo partly drawn) as the compound, how does the TGI [2] read?
A: Its TGI is 81.8 nM, 1.51 µM, 868 nM.

Q: And the TGI [3]?
A: The TGI was 130 nM, 1.85 µM, 1.29 µM.

Q: And the GI50 [4]?
A: The GI50 was 1.54 µM, 2.57 µM [1 test] and 76.4 nM [mean of 2 tests].

Q: And the TGI [4]?
A: Its TGI is 2.88 µM, 8.23 µM [1 test] and 198 nM [mean of 2 tests].

Q: What about the TGI [5] of the same compound?
A: The TGI was 178 nM, 2.11 µM, 2.56 µM.

Q: What about the TGI [6] of the same compound?
A: Its TGI is 266 nM, 2.8 µM, 2.61 µM.

Q: And the TGI [7]?
A: Its TGI is 206 nM, 2.85 µM, 2.25 µM.

Q: And the TGI [8]?
A: Its TGI is 119 nM and 1.62 µM.

Q: What about the TGI [9] of the same compound?
A: The TGI was 137 nM, 990 nM, 3 µM.

Q: And the TGI [10]?
A: The TGI was 114 nM, 2.86 µM, 9.22 µM.

Q: And the TGI [11]?
A: The TGI was 180 nM, 411 nM, 11.5 µM.

Q: And the TGI [12]?
A: The TGI was 82.9 nM, 1.19 µM, 437 nM.

Q: And the TGI [13]?
A: The TGI was 279 nM, 1.37 µM, 3.51 µM.

Q: And the TGI [14]?
A: The TGI was 125 nM and 4.04 µM.

Q: And the TGI [15]?
A: The TGI was 62.5 nM, 941 nM, 3.67 µM.

Q: What about the TGI [16] of the same compound?
A: Its TGI is 211 nM and > 100 µM.

Q: And the TGI [17]?
A: Its TGI is 98.9 nM, 1.02 µM, 705 nM.

Q: And the TGI [18]?
A: The TGI was 246 nM, 3.69 µM, 2.85 µM.

Q: And the TGI [19]?
A: The TGI was 185 nM, 4.34 µM, 2.01 µM.

Q: What about the TGI [20] of the same compound?
A: The TGI was 131 nM, 1.68 µM, 1.14 µM.

Q: What about the TGI [21] of the same compound?
A: The TGI was 411 nM, 4.16 µM, 5.57 µM.

Q: What about the TGI [22] of the same compound?
A: Its TGI is 145 nM, 1.32 µM, 2.64 µM.

Q: What about the TGI [23] of the same compound?
A: The TGI was 115 nM, 814 nM, 5.75 µM.

Q: What about the TGI [24] of the same compound?
A: The TGI was 84.6 nM and 1.88 µM.

Q: What about the TGI [25] of the same compound?
A: Its TGI is 494 nM and 5.33 µM.

Q: What about the TGI [26] of the same compound?
A: Its TGI is 248 nM, 3.41 µM, 7.13 µM.

Q: And the TGI [27]?
A: Its TGI is 284 nM, 3.64 µM, 2.37 µM.

Q: And the TGI [28]?
A: The TGI was 146 nM, 821 nM, 2.54 µM.

Q: And the TGI [29]?
A: The TGI was 253 nM, 4.21 µM, 3.28 µM.

Q: And the TGI [30]?
A: The TGI was 172 nM, 2.84 µM, 5.23 µM.

Q: What about the TGI [31] of the same compound?
A: The TGI was 341 nM, 3.79 µM, 6.74 µM.

Q: And the TGI [32]?
A: Its TGI is 87.5 nM, 3.59 µM, 484 nM.

Q: What about the TGI [33] of the same compound?
A: The TGI was 526 nM, 5.92 µM, 4.25 µM.

Q: And the TGI [34]?
A: The TGI was 199 nM and 2.66 µM (2×).

Q: What about the TGI [35] of the same compound?
A: The TGI was 35.2 nM and 1.3 µM.

Q: And the TGI [36]?
A: Its TGI is 95.6 nM and 5.4 µM.

Q: How did the TGI [21] turn out when Cc1c(CNc2ccc(Cl)c(C(=O)NC(CC(=O)O)C(=O)O)c2)ccc2nc(N)nc(N)c12 (stereo not drawn) was run?
A: Its TGI is 1.75 µM and > 1 mM.

Reference: PubChem BioAssay (NCI)
